Positions count from the first letter of the chain named.
T1: BCMA expressed endogenously on U266 and H929 cells (UniProt Q02223 1-184, limits assumed)
T1 construct: whole, on cells; The cell line (U266 or H929) is named under assay in each row; also called B cell maturation antigen; CD269
T1 sequence (looked up): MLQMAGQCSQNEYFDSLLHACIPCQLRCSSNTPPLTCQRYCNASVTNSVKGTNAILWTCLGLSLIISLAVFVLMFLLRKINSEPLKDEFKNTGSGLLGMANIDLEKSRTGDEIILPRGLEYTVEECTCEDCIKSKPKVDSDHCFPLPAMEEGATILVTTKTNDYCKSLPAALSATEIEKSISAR

T2: human BCMA-His protein (human, UniProt Q02223 1-54)
T2 construct: Analyte in the SPR assay; also called human BCMA protein; BCMA antigen protein; not shown: His tag
T2 sequence (looked up): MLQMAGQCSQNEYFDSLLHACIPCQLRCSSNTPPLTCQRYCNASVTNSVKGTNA

B1: BCMA-05 VL1VH2a (Fc fusion)
scFv: EGQMVQSGAEVKKPGSSVKVSCKASGYMFTDHTFHWVRQAPGQGLEWMGYIYPRDQNTKYNEKFKGRVTITADKSTSTAYMELSSLRSEDTAVYYCARAGYYGSSHAMDYWGQGTTVTVSSGGGGSGGGGSGGGGSDIQMTQSPSSLSASVGDRVTITCKASQDVSTAVAWYQQKPGKSPRLLIYSASSRYTGVPSRFSGSGSGTDFTFTISSLQPEDIATYYCQQLYSTPWTFGGGTKVEIK[human IgG1 Fc with C220S (EU numbers) not spelt out]
notes: humanized scFv-Fc
B2: BCMA-05 VL2VH2a (Fc fusion)
scFv: B1 scFv with S196D
notes: humanized scFv-Fc
B3: BCMA-05 VL3VH2a (Fc fusion)
scFv: EGQMVQSGAEVKKPGSSVKVSCKASGYMFTDHTFHWVRQAPGQGLEWMGYIYPRDQNTKYNEKFKGRVTITADKSTSTAYMELSSLRSEDTAVYYCARAGYYGSSHAMDYWGQGTTVTVSSGGGGSGGGGSGGGGSDIVMTQSPDSLAVSLGERATINCKASQDVSTAVAWYQQKPGQSPRLLIYSASSRYTGVPDRFSGSGSGTDFTLTISSLQAEDVAVYYCQQLYSTPWTFGGGTKVEIK[human IgG1 Fc with C220S (EU numbers) not spelt out]
notes: humanized scFv-Fc
B4: BCMA-mAb05 (Fc fusion)
scFv: QGQMQQSDAELVKPGASVQISCKASGYMFTDHTFHWMRQRPEQGLEWIGYIYPRDDNTKYNEKFKGKATLTADKSSSTAYIHLNSLTSEDSAVYFCARAGYYGSSHAMDYWGQGTSVTVSSGGGGSGGGGSGGGGSDIVMTQSHKFMSTSVGDRVSITCKASQDVSTAVAWYQQKPGQSPRLLIYSASSRYTGVPDRFTGSGSGTDFTFTISSVQTEDLAVYYCQQLYSTPWTFGGGTKLEIK[human IgG1 Fc with C220S (EU numbers) not spelt out]
notes: human-mouse chimeric scFv-Fc
B5: BCMA-06 VL1aVH2 (Fc fusion)
scFv: EVKLVESGGGLVQPGGSLRLSCAASGIDFSRYWMSWVRQAPGKGLEWVAEINPDSSTINYAPSLKDRFTISRDNAKNSLYLQMNSLRAEDTAVYYCAIFYYANYYAMDYWGQGTTVTVSSGGGGSGGGGSGGGGSDIQMTQSPSSVSASVGDRVTITCKASQNVDTNVAWYQQKPGKSPKALIYSASYRFSGVPSRFSGSGSGTDFTLTISSLQPEDFATYYCQQYQGYPFTFGQGTKLEIK[human IgG1 Fc with C220S (EU numbers) not spelt out]
B6: BCMA-06 VL1aVH1 (Fc fusion)
scFv: B5 scFv with K3Q
B7: BCMA-06 VL1aVH3 (Fc fusion)
scFv: B5 scFv with V5L, E6Q
B8: BCMA-mAb06 (Fc fusion)
scFv: EVKLLQSGGGLVQPGGSLKLSCAASGIDFSRYWMSWVRRAPGKGLEWIGEINPDSSTINYAPSLKDEFIISRDNAKNTLYLQMSKVRSEDTALYYCAIFYYANYYAMDYWGQGTSVTVSSGGGGSGGGGSGGGGSDIVMTQSQKFMSTSVGDRVSVTCKASQNVDTNVAWYQQKPGQSPKALIYSASYRFSGVPDRFTGSGSGTDFTLTISNVQSEDLAEYFCQQYNGYPFTFASGTKLEIK[human IgG1 Fc with C220S (EU numbers) not spelt out]
notes: human-mouse chimeric scFv-Fc
B9: BCMA-07 VL2VH2 (Fc fusion)
scFv: EVQLVQSGAEVKKPGSSVKVSCKASGYTFTDYWTHWVRQAPGQGLEWMGYINHGSGYTKYNQKFKDRVTLTADKSTSTAYMELSSLRSEDTAVYYCARLTGSYYFDYWGQGTTVTVSSGGGGSGGGGSGGGGSDIQMTQSPSSLSASVGDRVTITCSASSSVSYMHWYQQKPGKSPKRWIYDTSKLASGVPSRFSGSGSGTEFTLTISSLQPEDFATYYCQQWSSNPLTFGQGTKLEIK[human IgG1 Fc with C220S (EU numbers) not spelt out]
notes: humanized scFv-Fc
B10: BCMA-07 VL3VH1 (Fc fusion)
scFv: B9 scFv with L70I, D134Q
notes: humanized scFv-Fc
B11: BCMA-07 VL4VH2 (Fc fusion)
scFv: B9 scFv with D134Q, K174T
notes: humanized scFv-Fc
B12: BCMA-mAb07 (Fc fusion)
scFv: QVQLQQSGAELAKPGASVKLSCKASGYTFTDYWTHWVKQRPGQGLEWIGYINHGSGYTKYNQKFKDKATLTADKSSSTAYMQVSSLTYEDSAVYYCARLTGSYYFDYWGQGTTLTVSSGGGGSGGGGSGGGGSQIVLTQSPAIMSASPGEKVTMTCSASSSVSYMHWYQQKSGTSPKRWIYDTSKLASGVPPRFSGSGSGTSYSLTISSMEAEDAATYYCQQWSSNPLTFGAGTKLELK[human IgG1 Fc with C220S (EU numbers) not spelt out]
notes: human-mouse chimeric scFv-Fc

Molecular target: T1, BCMA expressed endogenously on U266 and …
Experiment: FACS on H929 cells
Protocol: The desired cells were scale-up cultured in T-75 cell culture flasks to the logarithmic growth phase, and the cells were pipetted into a single cell suspension. After the cells were counted, the cells were centrifuged and the cell pellet was resuspended in FACS buffer (PBS+2% fetal calf serum) to 2×10⁶ cells per ml, and the suspension was added to the 96-well FACS reaction plate at 50 μl per well, then the sample to be tested of the chimeric antibody was added at 50 μl per well and the mixture was incubated at 4° C. for 1 h. The obtained mixture was centrifuged and washed 3 times with a PBS buffer. […] The obtained mixture was centrifuged and washed 3 times with a PBS buffer. 100 μl of the mixture was taken for detection and result analysis by FACS (FACS Canto™, purchased from BD Company). Data analysis was performed by software (FlowJo) to obtain the mean fluorescence intensity (MFI) of the cells. Then, a software (GraphPad Prism8) was used for analysis, data fitting and EC50 calculation. The results are shown in Table 10 and FIGS. 10A-10B, FIGS. 11A-11B, and FIGS. 12A-12B. All seven chimeric antibodies bind to three types of BCMA-expressing endogenous cells.
The specific method was the same as that in Example 5 (C). First, the binding of humanized antibodies to U266 cells was detected. Based on the results, some humanized antibodies were selected and tested for binding to H929 cells. The remaining humanized antibodies were not tested for binding to H929 cells by FACS (indicated by “/” in the table). All humanized antibodies bind to U266 cells, and all humanized antibodies that bind to the H929 cell in the test bind to H929 cells.

Row | Binder | EC50 [nM] | Maximum mean fluorescence intensity
1 | B1 | 6.54 | 15100
2 | B2 | 8.72 | 14400
3 | B3 | 15.4 | 14100
4 | B4 | 9.83 | 14200
5 | B5 | 13.4 | 19800
6 | B6 | 12 | 17400
7 | B7 | 5.93 | 24200
8 | B8 | 4.43 | 21900
9 | B9 | 207 | 30700
10 | B10 |  | 73100
11 | B11 | 108 | 33500
12 | B12 | 9.09 | 21000

Molecular target: T1, BCMA expressed endogenously on U266 and …
Experiment: FACS on U266 cells
Outline: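 Binding measured by flow cytometry as mean fluorescence intensity, with EC50 from curve fitting. Antibody incubated 1 h at 4° C with cells suspended at 2×10⁶/ml in PBS containing 2% FCS, followed by washes.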

Row | Binder | EC50 [nM] | Maximum mean fluorescence intensity
13 | B1 | 9.27 | 2640
14 | B2 | 16.6 | 2450
15 | B3 | 18.4 | 2240
16 | B4 | 10.3 | 2370
17 | B5 | 528 | 4030
18 | B6 | 67.3 | 1710
19 | B7 |  | 4880
20 | B8 | 2.83 | 2400
21 | B9 |  | 11000
22 | B10 |  | 42700
23 | B11 |  | 11500
24 | B12 | 8.1 | 1800

Molecular target: T2, human BCMA-His protein
Experiment: SPR, antibody captured on Protein A chip, BCMA-His as analyte
Protocol: A sample buffer and a running buffer were HBS-EP+ (10 mM HEPES, 150 mM NaCl, 3 mM EDTA and 0.05% surfactant P20) (GE Healthcare; BR-1006-69). The flow-through cell was set to 25° C. The sample block was set to 16° C. Both were pretreated with the running buffer. In each cycle, an antibody to be tested was first captured with a Protein A chip, and then a single concentration of BCMA antigen protein was injected. The binding and dissociation processes of the antibody and the antigen protein were recorded, and finally Glycine pH 1.5 (GE Helthcare; BR-1003-54) was used to complete chip regeneration. Binding was measured by injecting different concentrations of BCMA-His in solution for 240 s with a flow rate of 30 μL/min. The concentration started from 200 nM (see the detailed results for the actual concentration in the test) and was diluted at 1:1, making a total of 5 concentrations. The dissociation phase was monitored for up to 600 s and was triggered by switching from sample solution to running buffer. The surface was regenerated by washing with a 10 mM glycine solution (pH 1.5) for 30 s at a flow rate of 30 μL/min. Bulk refractive index difference was corrected by subtracting the response obtained from the goat anti-human Fc surface. Blank injection was also subtracted (=double reference). For calculation of apparent KD and other kinetic parameters, Langmuir 1:1 model was used. The binding rate (Kₐ), dissociation rate (Kdis) and binding affinity (KD) of the chimeric antibodies to human BCMA protein are shown in the table, wherein REGN5459-hlgG1 and HPN217-hHcAb antibodies were used as controls.
The specific method was the same as that in Example 6. The binding rate (Kₐ), dissociation rate (Kdis) and binding affinity (KD) of the humanized antibodies to human BCMA protein are shown Table 38, wherein REGN5459-hlgG1 antibody is used as a control.

Row | Binder | Kd [nM] | koff [s⁻¹] | kon [M⁻¹ s⁻¹]
25 | B1 | 0.0258 | 2.43e-05 | 942000
26 | B2 | 0.0267 | 2.6e-05 | 975000
27 | B3 | 0.0281 | 2.67e-05 | 947000
28 | B4 | 0.0186 | 2.39e-05 | 1.29e+06
29 | B5 | 18.5 | 0.00501 | 271000
30 | B6 | 19.3 | 0.00532 | 276000
31 | B7 | 8.54 | 0.00326 | 382000
32 | B8 | 0.358 | 0.000341 | 952000
33 | B9 | 0.792 | 0.000946 | 1.19e+06
34 | B10 | 1.62 | 0.00148 | 913000
35 | B11 | 0.508 | 0.000747 | 1.47e+06
36 | B12 | 0.751 | 0.00107 | 1.42e+06
